The results in this text go back to PMC12136788.

T1: UNK ZnF1-3 (human, UniProt Q9C0B0 31-174)
T1 sequence: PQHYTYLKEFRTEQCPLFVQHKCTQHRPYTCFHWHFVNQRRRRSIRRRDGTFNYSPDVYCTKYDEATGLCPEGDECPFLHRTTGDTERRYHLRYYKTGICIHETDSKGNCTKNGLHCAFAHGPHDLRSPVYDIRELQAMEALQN

B1: chr9:95013113:95013114:-_ENSG00000196305_ENST00000443024|hu_hu|hu_hu_hu_mus_False|8_8 (ssRNA)
RNA: GGGAGUUCUACAGUCCGACGAUCCUCAGUCAGAAAGGGCGUGUAAGGGGCCAUCAGUCUGCACAGAGAAAGCAGGACACUGAACAGUGUCUCCAGAGCCAUGACACAGUCUUCCACCCCACUCUCACCCUUUAAUCUCCUCCUCAACAGAGGAUUGAGCAUCA
B2: chr9:58049234:58049235:-_ENSMUSG00000051243_ENSMUST00000163200|mus_mus|motif|central (ssRNA)
RNA: GGGAGUUCUACAGUCCGACGAUCGCUGUGGCGGUGGGGAGAAAGGGGGAGUGCAUUGAAAGAACUCCCCUUGGCCCCAAAGUCCGGCUUCAAUUUUUUUCUUUCCUUAUCUGUUCGCCCUACUUCUCCAGGAUUGCAGGUUUGCAACAGAGGAUUGAGCAUCA
B3: chr9:110451384:110451385:+_ENSMUSG00000044791_ENSMUST00000153838|mus_hu|motif|central (ssRNA)
RNA: GGGAGUUCUACAGUCCGACGAUCAGGAUUUUUAUUAAUCAUUCUUAAUUCACUACCUUUUGAACAAGGUGUCUGUAAACGGAAAGAAUGAGACUGUUUGAUUUCUUCAUUUAAUUCUGUACAACAGAAAGAAUUUUUAAAUUUCAACAGAGGAUUGAGCAUCA
B4: chr14:102378876:102378877:+_ENSG00000078304_ENST00000445439|hu_hu|FALSE|FALSE (ssRNA)
RNA: GGGAGUUCUACAGUCCGACGAUCAGACAUUUUCAUAUACAACGUUAGUGAAAUCGAGACCCCCCCCAUGGUGAAGACAUAUAUUCCUAUCUUAUAAAAACAUUCAAGUAACCCUGGGCGUUUUCAUGUUAUUCUCUUUUUUAGCAACAGAGGAUUGAGCAUCA
B5: chr11:87794392:87794393:-_ENSMUSG00000020483_ENSMUST00000020775|mus_mus|motif|central (ssRNA)
RNA: GGGAGUUCUACAGUCCGACGAUCCACACCCACCCCUGCCCCAAGCCAUAGUCACAGUUCUGUGGAAUAUUCUCCCCGGUACGGGAGCCACCACCCCCCCCCCCACCUUCCUGCCCCUCUCCUUGCCAAUCCUAACCCUGUCCUCAACAGAGGAUUGAGCAUCA
B6: chr1:66480114:66480115:+_ENSMUSG00000015222_ENSMUST00000024639|mus_hu|mus_mus_mus_hu_True|28_48 (ssRNA)
RNA: GGGAGUUCUACAGUCCGACGAUCUGGCCUGUGGCGGAUGUUCUUCAGAGAGCCACAUUUGGAUGUCACAUGGCUUAGGUCUAUUUUCUUAGUAACAAUUUGUACCUGACCCCCCUUAGGCUGGUAUUUGAUGUUGUCUGUUGACAACAGAGGAUUGAGCAUCA
B7: 122743579_122743699_679_CDS_ENSG00000145386_ENST00000274026|human|control|control (ssRNA)
RNA: GGGAGUUCUACAGUCCGACGAUCAUCAAGAGGGACCAAUGGUUUUCUGGGUCCAGGUAAACUAAUGGCUGAAUUAAAAGCCAGGGCAUCUUCACGCUCUAUUUUUUGAGAUUCAGCUGGCUUCUUCUGAGCUUCUUUUUCUGCCAACAGAGGAUUGAGCAUCA
B8: 37202829_37203424_4297_CDS_ENSG00000170471_ENST00000397040|human|control|control (ssRNA)
RNA: GGGAGUUCUACAGUCCGACGAUCCAGAAAGCCAAGAGCUCGCCUGCUGACAAUCAUCCCAUCCACAAGAGGGAUGACCAUAUUAAAUUUUCCAGUGGCUCCUUGAAUUUUUAUCCGGAAUAAUCCAGUGUUUAAAGGGUGGAUCAACAGAGGAUUGAGCAUCA
B9: 24278311_24279896_614_3pUTR_ENSMUSG00000043067_ENSMUST00000142064|mouse|control|control (ssRNA)
RNA: GGGAGUUCUACAGUCCGACGAUCCCUCACAGCUCUCAAUCGGACUGAGUCCUUCUCCUCGGGUAACUGUCCAGCAGAUCUUGGUUUGAAUACCAAUCAAAUCCAUUAUUUUGGUAUAAAUCCGGUACCAGCUGGCUAAGAUCACAACAGAGGAUUGAGCAUCA
B10: 29179531_29182094_736_3pUTR_ENSG00000159873_ENST00000249064|human|control|control (ssRNA)
RNA: GGGAGUUCUACAGUCCGACGAUCUCCAUGGAAGGACGGCUCAUAGACUCAAUCAUUUUCUUUGUAAAAACUUCAUCAAAUUCCCUCUUCAAACCUGUUUUCAUGGUAUCAGAAAGGACAAGACUGGGGAGAUGGUUAACAUUUCAACAGAGGAUUGAGCAUCA
B11: chr14:76904430:76904431:+_ENSMUSG00000022010_ENSMUST00000022587|mus_mus|mus_mus_mus_hu_True|38_58 (ssRNA)
RNA: GGGAGUUCUACAGUCCGACGAUCUGCAGCCAAAAACACCCUCGUGGAAAAAAAGAGGGAACACCAGCAGCCUUGUACAAACUAGAUAAAAUCUUCUAGCUGUCUGCAGCCCAGGGAGAAACAGAAAACGGCAGCCCUAAUUUACAACAGAGGAUUGAGCAUCA
B12: chr13:90237973:90237974:+_ENSMUSG00000012422_ENSMUST00000161568|mus_hu|FALSE|FALSE (ssRNA)
RNA: GGGAGUUCUACAGUCCGACGAUCAAGCACAGGUACAUAUAAGCAGCAAGAUUACAGUCAAUAGACUCUGAAAAUUGAAAAUGGCAGACAUAGCGAGGCCGGCGAUGCCGCAGCCACAUCACCCUUCCGGGGCUCAGGCGGAAGCAACAGAGGAUUGAGCAUCA
B13: chr1:34870196:34870197:-_ENSMUSG00000037503_ENSMUST00000047534|mus_hu|FALSE|FALSE (ssRNA)
RNA: GGGAGUUCUACAGUCCGACGAUCAUCUGAGCUCAUCUCAUCAGAUUGCAUAAAAAAUUAAAAUAGUAUCAAUUGACACCUAACUGAACUGGCUCAGGAUGGAAAUUCCAUUCCUUGGCAUGGAUACGUAAGUUCAAUGCAGAGCAACAGAGGAUUGAGCAUCA
B14: 100444871_100444991_3705_CDS_ENSG00000111647_ENST00000279907|human|control|control (ssRNA)
RNA: GGGAGUUCUACAGUCCGACGAUCUUCCUGAGCACCCUCUGAAUUUGUACUGAUGGCAUCUGGAGAAGUUUCACCAUAAUUCUGUAGGUUUGCACCAGCAUUCACACUUUCUGCUGUGCCCCUGUAAUUUGUAGUUGAGUUCUUCAACAGAGGAUUGAGCAUCA

The other results are listed elsewhere or left out.

The experiment concerns the target T1, UNK ZnF1-3. The experiment in a line: nsRBNS (natural sequence RNA bind-n-seq); RBNS binding buffer (assumed for nsRBNS): 25 mM Tris pH 7.5, 150 mM KCl, 3 mM MgCl2, 0.01% Triton X-100, 500 ug/ml BSA, 20 U/ml SUPERase-In, 4 C; UNK is unkempt and MSI1 is Musashi-1; names of the RNAs are library labels; protein concentration not given here; high values mean tight binding.
Molecule B1 returned a binding signal of 1.19 enrichment R.

In turn, B2 yielded a binding signal of 1.13 enrichment R.

In turn, B3 came in with a binding signal of 0.905 enrichment R.

B4 returned a binding signal of 1.08 enrichment R.

B5 displayed a binding signal of 2.31 enrichment R.

The molecule B6 came in with a binding signal of 0.616 enrichment R.

For B7, the binding signal was determined as 0.667 enrichment R.

B8 yielded a binding signal of 1.11 enrichment R.

Consider B9, for which the binding signal is 1.11 enrichment R.

Take B10: the binding signal was determined as 1.3 enrichment R.

As for B11, the binding signal stood at 2.89 enrichment R.

For the molecule B12, the binding signal amounted to 1.37 enrichment R.

Molecule B13 showed a binding signal of 1.69 enrichment R.

On to B14, for which the binding signal is 0.864 enrichment R.
